In PMC12548284, “SIK2-mediated phosphorylation of GABARAPL2 facilitates autophagosome–lysosome fusion and rescues neurodegeneration in an Alzheimer’s disease model” (Translational Neurodegeneration, 2025):
Results are given in words; binding and its absence hold for the method and conditions named. For part of these data: In cells and extracts the contact can be indirect. Some binding calls cover weakened binding; strength is not graded here. For part of these data: Sequences can lack the tags named with a protein.

Chains of the proteins cited; added tags and fusions are not shown. Lines headed by an entry give the natural chain unless they say otherwise; changes in a name come on top.
UniProt P60521: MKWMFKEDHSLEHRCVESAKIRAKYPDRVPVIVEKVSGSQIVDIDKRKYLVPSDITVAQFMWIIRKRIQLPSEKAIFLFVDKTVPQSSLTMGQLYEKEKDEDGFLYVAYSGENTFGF
UniProt P60520: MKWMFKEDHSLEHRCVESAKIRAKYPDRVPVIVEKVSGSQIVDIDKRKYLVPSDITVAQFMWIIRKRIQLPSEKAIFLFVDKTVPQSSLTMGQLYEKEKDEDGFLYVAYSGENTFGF
UniProt Q9DCD6: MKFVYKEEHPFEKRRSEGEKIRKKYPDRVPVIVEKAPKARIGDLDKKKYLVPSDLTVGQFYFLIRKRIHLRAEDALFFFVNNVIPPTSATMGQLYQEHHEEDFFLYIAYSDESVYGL
UniProt Q60670: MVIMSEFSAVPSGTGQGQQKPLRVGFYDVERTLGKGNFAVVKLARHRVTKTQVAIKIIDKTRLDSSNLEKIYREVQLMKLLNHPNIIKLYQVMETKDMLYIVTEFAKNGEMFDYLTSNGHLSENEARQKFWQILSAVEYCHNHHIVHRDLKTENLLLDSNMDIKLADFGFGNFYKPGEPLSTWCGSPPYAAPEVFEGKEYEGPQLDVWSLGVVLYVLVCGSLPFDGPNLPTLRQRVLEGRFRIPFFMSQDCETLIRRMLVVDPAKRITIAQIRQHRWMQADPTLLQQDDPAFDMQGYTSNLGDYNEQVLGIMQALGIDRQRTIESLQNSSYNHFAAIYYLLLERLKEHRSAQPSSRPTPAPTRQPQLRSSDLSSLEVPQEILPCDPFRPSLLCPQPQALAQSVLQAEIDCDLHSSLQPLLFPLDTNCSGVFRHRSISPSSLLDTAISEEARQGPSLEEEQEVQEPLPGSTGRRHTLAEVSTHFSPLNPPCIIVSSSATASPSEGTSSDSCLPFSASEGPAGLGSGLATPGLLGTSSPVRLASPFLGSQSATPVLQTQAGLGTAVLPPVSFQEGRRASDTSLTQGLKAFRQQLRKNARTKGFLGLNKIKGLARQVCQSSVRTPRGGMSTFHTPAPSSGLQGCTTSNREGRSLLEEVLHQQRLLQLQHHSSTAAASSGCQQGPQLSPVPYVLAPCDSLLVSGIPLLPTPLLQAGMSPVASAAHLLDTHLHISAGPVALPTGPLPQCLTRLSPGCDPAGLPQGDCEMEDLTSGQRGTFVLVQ

Key:
[1] = biological target: SIK2-flag (salt-inducible kinase 2, flag-tagged) (UniProt Q8CFH6); assay: co-IP; N2a cells overexpressing SIK2-flag; lysates in RIPA buffer incubated with anti-flag magnetic beads; Western blot for ATG8 family members
[2] = biological target: Salt-inducible kinase 2 (SIK2) (mouse (endogenous in N2a and in hippocampal tissue)) (UniProt Q8CFH6); assay: co-IP; mouse hippocampal tissue lysate in RIPA buffer, pre-cleared with Protein A/G beads; anti-SIK2- or control IgG-conjugated beads overnight
SIK2(1–650)-His = biological target: T1, SIK2(1–650)-His (UniProt Q8CFH6); assay: co-IP; SIK2 deletion mutants with His tag, precipitated with anti-His antibodies; blot for GABARAPL2
T1 sequence: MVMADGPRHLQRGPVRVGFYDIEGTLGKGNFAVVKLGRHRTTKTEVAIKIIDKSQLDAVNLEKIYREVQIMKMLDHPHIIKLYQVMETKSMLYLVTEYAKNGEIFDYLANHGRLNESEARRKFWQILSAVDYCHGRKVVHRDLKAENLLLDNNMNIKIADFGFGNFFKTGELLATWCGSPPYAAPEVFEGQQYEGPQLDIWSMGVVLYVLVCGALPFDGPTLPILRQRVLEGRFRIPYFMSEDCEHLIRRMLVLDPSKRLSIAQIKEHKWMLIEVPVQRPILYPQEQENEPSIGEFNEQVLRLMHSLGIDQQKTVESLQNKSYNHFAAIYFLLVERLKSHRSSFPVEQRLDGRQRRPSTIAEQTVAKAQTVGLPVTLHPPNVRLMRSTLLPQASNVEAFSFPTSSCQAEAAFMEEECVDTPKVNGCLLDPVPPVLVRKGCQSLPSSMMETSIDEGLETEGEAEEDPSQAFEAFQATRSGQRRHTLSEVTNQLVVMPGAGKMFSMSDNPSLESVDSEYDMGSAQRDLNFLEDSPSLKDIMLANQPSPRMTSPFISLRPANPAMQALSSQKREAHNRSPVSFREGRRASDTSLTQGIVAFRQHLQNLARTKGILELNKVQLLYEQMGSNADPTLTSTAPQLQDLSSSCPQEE

SIK2(1–550)-His = biological target: T2, SIK2(1–550)-His (UniProt Q8CFH6); assay: as above
T2 sequence: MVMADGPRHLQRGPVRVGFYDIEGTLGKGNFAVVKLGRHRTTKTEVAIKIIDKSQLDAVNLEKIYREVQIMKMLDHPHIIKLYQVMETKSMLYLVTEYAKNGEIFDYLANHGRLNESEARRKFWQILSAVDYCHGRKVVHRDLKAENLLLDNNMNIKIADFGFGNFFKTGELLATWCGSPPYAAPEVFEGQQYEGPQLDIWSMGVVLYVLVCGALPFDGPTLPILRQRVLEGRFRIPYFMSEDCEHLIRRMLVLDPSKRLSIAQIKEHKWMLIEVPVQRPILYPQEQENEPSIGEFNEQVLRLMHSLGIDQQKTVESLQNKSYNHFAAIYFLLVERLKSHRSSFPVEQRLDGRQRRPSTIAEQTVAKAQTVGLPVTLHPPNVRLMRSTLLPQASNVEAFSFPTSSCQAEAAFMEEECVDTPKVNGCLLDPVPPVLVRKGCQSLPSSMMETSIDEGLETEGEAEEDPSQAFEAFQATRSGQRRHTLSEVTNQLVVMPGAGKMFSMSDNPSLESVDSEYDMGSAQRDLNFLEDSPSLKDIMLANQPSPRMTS

SIK2(1–290)-His = biological target: T3, SIK2(1–290)-His (UniProt Q8CFH6); assay: as above
T3 sequence: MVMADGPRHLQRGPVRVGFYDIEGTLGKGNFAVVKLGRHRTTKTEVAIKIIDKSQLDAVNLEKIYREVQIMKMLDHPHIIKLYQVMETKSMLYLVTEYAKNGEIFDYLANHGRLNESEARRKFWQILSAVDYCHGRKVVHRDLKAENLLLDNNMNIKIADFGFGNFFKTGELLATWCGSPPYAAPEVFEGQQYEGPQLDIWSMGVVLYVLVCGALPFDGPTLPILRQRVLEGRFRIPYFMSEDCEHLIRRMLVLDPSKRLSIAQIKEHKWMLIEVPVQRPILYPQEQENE

SIK2(1–931)-His = SIK2(1–931)-His (UniProt Q8CFH6); assay: as above
[3] = biological target: GABA type A receptor-associated protein-like 2 (GABARAPL2) (mouse (endogenous in N2a and in hippocampal tissue)) (UniProt P60521); assay: co-IP; mouse hippocampal tissue lysate in RIPA buffer, pre-cleared with Protein A/G beads; anti-SIK2- or control IgG-conjugated beads overnight
[4] = biological target: GABA type A receptor-associated protein-like 2 (GABARAPL2) (mouse (endogenous in N2a and in hippocampal tissue)) (UniProt P60521); assay: co-IP; 'in either experimental system': the system other than hippocampal tissue, not given
flag-tagged GABARAPL2 = flag-tagged GABARAPL2 (UniProt P60521); assay: co-IP; reciprocal: N2a cells overexpressing flag-tagged ATG8 family members; anti-flag beads; Western blot for SIK2
GST-GABARAPL2 = biological target: T4, GST-GABARAPL2 (UniProt P60520 1-117); assay: pull-down; competitive GST pull-down: GST-GABARAPL2 on glutathione-conjugated Sepharose beads, SIK2 protein in solution, LIR peptide at 0, 5, 10, 20, 40 μmol/L; immunoblot; both purified
T4 construct: GABARAPL2 of the bought GST fusion protein; source: bought: Proteintech (Ag1155)

Substance: GABA type A receptor-associated protein-like 2 (GABARAPL2) (from UniProt P60521 1-117)
- binding [1]: binds
- binding [2]: binds

Substance: GABARAP (from UniProt Q9DCD6 1-117)
- binding [1]: binds

Substance: GABARAPL2 (in the Co-IP with the SIK2 deletion mutants) (from UniProt P60521 1-117)
- binding (SIK2(1–650)-His): binds
- binding (SIK2(1–550)-His): binds
- binding (SIK2(1–290)-His): no binding
- binding (SIK2(1–931)-His): binds

Substance: LC3A (from UniProt Q91VR7 1-121)
- binding [1]: binds

Substance: SIK1 (from UniProt Q60670 1-779) (enzyme)
- binding [3]: no binding
- binding [4]: no binding

Substance: Salt-inducible kinase 2 (SIK2) (from UniProt Q8CFH6 1-931) (enzyme)
- binding (flag-tagged GABARAPL2): binds

Substance: full-length SIK2 protein (expressed in vitro) (from UniProt Q8CFH6 1-931) (enzyme)
- binding (GST-GABARAPL2): binds
